Assay results published in PubChem BioAssay AID1963576 (National Center for Advancing Translational Sciences (NCATS), 2024).
Out of some 46,000 compounds screened, about 60 (0.1%) were called active. About 3% were inconclusive and are not listed. Calls follow the shape of the dose curve; as a rule, active = well fitted inhibition curve with a large enough effect; inconclusive = small, poorly fitted or top-dose-only effect; inactive = no such curve, though single readings can be large or run the other way. This is one part of the list.

assay: Primary qHTS assay for Inhibitors of ovarian cancer metastasis using an organotypic tumor microenvironment (TME) model.; also: nearly all actives have a fitted effect of over 65% in size;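 as to activity change, negative = inhibition: plate controls were DMSO wells for no effect and tomatine positive control wells for full effect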; conditions: SKOV3ip1-GFP adhesion/invasion on 3D omental model, fluorescence; series mostly up to 45.8 µM; activity change, negative = inhibition: at the top concentration
How it was run: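 Primary human omental fibroblast/mesothelial 3D culture pre-formed 48 h. SKOV3ip1-GFP cells added with compounds (0.36-46 umol/L), incubated 2 h RT/16 h 37 C, fixed; GFP cells quantified at 488/509 nm.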

Structure (SMILES)	activity change, negative = inhibition	outcome
CCc1ccc(N(CC)C(=O)c2cc3c(=O)oc4ccc(C)cc4c3s2)cc1	inactive: 6.19%	–
CC(=O)c1ccc(NS(=O)(=O)c2cccc(S(=O)(=O)c3ccc(Cl)cc3)c2)cc1	inactive: 3.94%	–
COCCNc1oc(-c2ccccc2)nc1S(=O)(=O)c1ccc(Br)cc1	inactive: 0.141%	–
COc1ccc2oc(=O)c(C(=O)NCCc3c(C)[nH]c4ccc(F)cc34)cc2c1	inactive: 12.5%	–
COc1cccc(-c2nc(S(=O)(=O)c3ccc(Cl)cc3)c(NCc3ccccc3)o2)c1	inactive: 2.82%	–
CCc1ccc(-c2cn3c(n2)sc2cc(C(=O)NC4CCCCC4)ccc23)cc1	inactive: -3.09%	–
CC(=O)Nc1ccc(NS(=O)(=O)c2c(C(=O)N3CCC(C)CC3)c(C)n(C)c2C)cc1	inactive: -1.12%	–
COc1cccc(C(=O)Nc2cccc(OCc3cc(=O)n4c5c(sc4n3)CCCC5)c2)c1	–	inactive
CCCCN(CC)CCCNC(=O)c1cc2c(=O)[nH]c3ccccc3c2n1C	inactive: -28.1%	–
COc1ccc(NC(=O)CCCSc2nc(-c3ccco3)cc(C(F)(F)F)n2)cc1OC	inactive: 9.53%	–
COc1ccc2sc(N(Cc3cccnc3)C(=O)c3ccc4c(c3)OCCO4)nc2c1	–	inactive
O=C(NCCc1ccccc1Cl)c1sc2ncccc2c1-n1cccc1	inactive: -0.731%	–
CCC(=O)N1c2ccccc2CC1C(=O)NCCc1ccccc1 (stereo not drawn)	inactive: 0.658%	–
Cn1c(=O)oc2cc(S(=O)(=O)N3CCCC(C(=O)NCc4ccc(F)cc4)C3)ccc21 (stereo not drawn)	inactive: -4.62%	–
CC(C)CCNC(=O)c1cc2cc(S(=O)(=O)N3CCCCC3)ccc2n1C	inactive: 4.76%	–
O=C(Nc1ccc(F)c(Cl)c1)N1CC=C(c2c[nH]c3ccccc23)CC1	inactive: -7.54%	–
O=C(NCc1ccccc1Br)c1cnc2sc(N3CCCCCC3)nn2c1=O	–	inactive
CC(C)(C)C(=O)Oc1ccc2c(c1)nc(NC(=O)c1cccc([N+](=O)[O-])c1)n2CCCO	inactive: 7.59%	–
CC1=C(C(N)=O)C(c2ccccc2Br)n2ncnc2N1 (stereo not drawn)	inactive: 21.1%	–
COc1cccc(Cn2nnc3c(=O)[nH]c(C4CCN(C(=O)c5ccccc5Cl)CC4)nc32)c1	inactive: -4.69%	–
CSc1ncc(Cl)c(C(=O)Nc2c(C(=O)Nc3cccc(Cl)c3)oc3ccccc23)n1	inactive: -4.09%	–
CCC(=O)Nc1ccccc1-c1nc2ccccc2n(CC(=O)c2ccc(C)cc2)c1=O	inactive: -5.08%	–
COc1ccc(CNC(=O)CCCN2C(=O)COc3ccc(C)cc32)cc1	inactive: 0.159%	–
Cc1ccc(N2CCN(C(=O)c3cnc(N4CCCCC4)c4ccccc34)CC2)c(C)c1	inactive: 1.04%	–

Structure (SMILES)	activity change, negative = inhibition	outcome
COc1ccc(-n2nc(C(=O)N3CCCC(C)C3)c3c4ccccc4n(C)c3c2=O)cc1Cl (stereo not drawn)	inactive: 12.8%	–
COc1cc(OC)c(NC(=O)CCCn2nc(C)c3c(C)n(-c4ccccc4)nc3c2=O)cc1Cl	inactive: -10.8%	–
CCOC(=O)c1ccc(NC(=O)CSc2c3c(nc4cc(Cl)ccc24)CCCC3)cc1	inactive: 27.5%	–
Cc1ccc(N2CCn3c2nc2c3c(=O)n(CCCc3ccccc3)c(=O)n2C)cc1C	inactive: -2.03%	–
Cc1nn2c(C)c(C(=O)NCc3ccco3)cnc2c1-c1ccccc1	inactive: -7.31%	–
Cc1nn(C(=O)c2ccc(Cl)cc2)c(C)c1S(=O)(=O)N1CCCCCC1	inactive: -10.3%	–
O=C(NC1CC(=O)N(c2ccccc2)C1)c1ccc(S(=O)(=O)N2CCCCC2)cc1 (stereo not drawn)	inactive: -0.917%	–
CCN(CC)c1nc2ccccc2nc1C(=O)Nc1cc(OC)c(OC)c(OC)c1	–	inactive
CN(C)c1ccc(/C=C/c2noc(-c3ccccc3O)n2)cc1	inactive: 10.3%	–
COc1ccccc1NC(=O)C1=C(C)Nc2nc(SCc3ccccc3Cl)nn2C1c1ccccn1 (stereo not drawn)	–	inactive
Cc1cccc(OCC(=O)N(Cc2ccc(C(C)(C)C)cc2)Cc2ccco2)c1	–	inactive
COc1ccc(C2C(C(=O)Nc3cccnc3)=C(C)Nc3nc(-c4ccccc4)nn32)cc1OC (stereo not drawn)	inactive: -5.64%	–
COc1ccc(OCC(=O)NCC(c2ccc(OC)cc2)N2CCCCC2)cc1 (stereo not drawn)	inactive: 0.872%	–
O=c1[nH]c(=O)n(C2CCCCC2)c(O)c1C1=Nc2ccccc2SC(c2ccccc2)C1 (stereo not drawn)	inactive: -0.637%	–
CCc1ccc(-n2nc(C)c3c(C)cc(=O)n(CC(=O)Nc4ccc(C(C)=O)cc4)c32)cc1	inactive: 6.05%	–
COc1ccc(-c2nc(CSc3nnc(C)n4c3cc3occc34)c(C)o2)cc1OC	–	inactive
COCCCNc1nc(NCc2cccc(Cl)c2)c2cnn(C)c2n1	inactive: -0.637%	–
COc1cc(OC)c(NC(=O)N2CC3CCCN3c3ccccc32)cc1Cl (stereo not drawn)	inactive: -6.98%	–
CC(C)C(NS(=O)(=O)c1ccc2c(c1)oc(=O)n2C)C(=O)NCCc1ccccc1 (stereo not drawn)	inactive: 1.57%	–
CC(C)c1ccc(NC(=O)C(C)N(c2ccccc2)S(C)(=O)=O)cc1 (stereo not drawn)	–	inactive
COc1cc(OC)cc(C(=O)N2CCN(C(=O)COc3ccccc3)CC2)c1	–	inactive
Cc1ccc(C(c2cccc(Br)c2)c2c(C)[nH]c3ccccc23)s1 (stereo not drawn)	inactive: -8.18%	–
O=c1c2ccccc2n2c(-c3ccc(Cl)cc3)nnc2n1CCc1ccccc1	inactive: -25.4%	–
CSc1ccc(CCNS(=O)(=O)c2ccc3c(c2)C(C)(C)C(=O)N3C)cc1	–	inactive
